Data taken from PMC5540273 (PLoS ONE, 2017).
Most of the strong results are listed elsewhere, so they are rarer here than in the full data.

system: CDK8; settings: concentration: 1 μM,replicates: in singlicate; n = 1
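Note: KINOMEscan kinase panel screen.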

| Compound | %Inh [%] |
| --- | --- |
| O=C1NC(=O)C(c2ccc(Cl)cc2)=C1Nc1cccc(C(=O)O)c1 [SB-360737] | 0 |
| O=C1NC(=O)C(c2ccccc2Cl)=C1Nc1cccc(C(=O)O)c1 [SB-390526] | 34 |
| O=C1NC(=O)C(c2ccc(Cl)cc2)=C1Nc1ccc(O)c(Cl)c1 [SB-405367] | 0 |
| O=C1NC(=O)C(c2ccc(Cl)cc2)=C1Nc1cccc(O)c1 [SB-333613] | 7 |
| O=C1NC(=O)C(c2ccccc2)=C1Nc1cc(Cl)c(O)c(Cl)c1 [SB-390530] | 31 |
| Cc1ccc(C)c(Oc2nccc(-c3c(-c4ccc(F)cc4)ncn3C3CCNCC3)n2)c1.O=C(O)C(F)(F)F.O=C(O)C(F)(F)F.O=C(O)C(F)(F)F [SB-284852] | 52 |
| Cc1cc(C)cc(Oc2nccc(-c3c(-c4ccc(F)cc4)ncn3C3CCNCC3)n2)c1.O=C(O)C(F)(F)F.O=C(O)C(F)(F)F.O=C(O)C(F)(F)F [SB-284851] | 74 |
| O=C1NC(=O)C(c2ccccc2)=C1Nc1ccc(Cl)c(C(=O)O)c1 [SB-390532] | 7 |
| O=C1NC(=O)C(c2ccccc2Cl)=C1Nc1ccccc1 [SB-376715] | 22 |
| O=C(O)c1ccc(-c2nc(-c3ccc(F)cc3)c(-c3ccncc3)[nH]2)cc1 [SB-202620] | 0 |
| COc1cccc(C2=C(Nc3ccc(SC)cc3)C(=O)NC2=O)c1 [SB-331032] | 26 |
| COc1ccc(C2=C(Nc3cccc(Cl)c3)C(=O)NC2=O)cc1 [SB-326892] | 20 |
| CSc1ccc(NC2=C(c3cccc(Cl)c3)C(=O)NC2=O)cc1 [SB-341528] | 0 |
